About 11,000 (3.1%) of roughly 360,000 compounds were called active. Inconclusive means that the source gave no clear call. Such entries were picked first, then a sample of the others. The call rests on the fitted dose curve; in most records, active means well fitted inhibition curve with a large enough effect; inconclusive means small, poorly fitted or top-dose-only effect; inactive means no such curve, though single readings can be large or run the other way. No potency is given beside an inconclusive call; the fits are too rough.
Biological target: Schistosoma mansoni thioredoxin glutathione reductase (TGR) (UniProt Q962Y6)
Experiment: qHTS Assay for the Inhibitors of Schistosoma Mansoni Peroxiredoxins; further: nearly all actives have a fitted effect of over 60% in size
Details: purified TGR, DTNB reduction, TNB absorbance 405 nm; series mostly up to 114 µM
Outline: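 Kinetic colorimetric format: TGR-catalysed, NADPH-driven DTNB reduction monitored via TNB absorbance. Enzyme dispensed at 20 nM; compound exposure 15 min at room temperature before reaction start.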
Potency means the concentration at half of the fitted maximal effect; tags describe the fitted curve by direction and shape.

Structure (SMILES)	Potency
O=C(CCn1nnc2ccccc2c1=O)N[C@@H](Cc1ccccc1)C(=O)O	inconclusive [inhibitor, partial curve, poor fit]
CCN(CC)c1c([N+](=O)[O-])c(=O)n(CC)c2ccccc12	inactive
CC(=O)c1cccc(NC(=O)NN2CCN(C)CC2)c1	inactive
CN(C)/C=N/c1sc2c(c1C#N)CCCC2	inactive
Cc1ccc(CNC(=O)c2cc(Cl)cc(Cl)c2)n1C	active: 31.6 µM
Cc1ccc(Nc2c(-c3ccco3)nc3nc(C)cc(C)n23)cc1	active: 31.6 µM
CCn1c(=O)n(CC)c2cc(N3CCCCC3)c(NC(=O)Nc3ccccc3Cl)cc21	inactive
O=C(c1ccc(-c2ccc([N+](=O)[O-])cc2)o1)N1CCCC(C(F)(F)F)C1 (stereo not given)	inconclusive [inhibitor, full curve, poor fit]
CC(C)c1ccc(NC(=O)CN(C)S(=O)(=O)c2ccc3c(c2)c(=O)n(C)c(=O)n3C)cc1	inactive
CSc1ccc(C2NC(=O)c3c(sc4c3CCN(C)C4)N2)cc1 (stereo not given)	inconclusive [inhibitor, partial curve]
O=C(COc1ccccc1)Nc1nnc(-c2ccc3c(c2)CCCC3)o1	inactive
COc1ccc(NC(=O)C(=O)NCCC2=CCCCC2)c(OC)c1	inactive
COc1ccc(C(=O)Oc2ccc[nH]c2=O)cc1	inactive
CC(=O)N1CCN(CCN=CC2=C(O)CC(C)(C)CC2=O)CC1	active: 28.2 µM
COc1ccccc1/C=C1\CCCC2=C1Nc1nnnn1C2c1ccccc1OC (stereo not given)	active: 3.98 µM
Cc1cccc(/C=C(\c2nc3ccccc3[nH]2)S(=O)(=O)c2ccccc2)c1	inconclusive [inhibitor, single point]
COc1ccc(OC)c(-c2nnc3n(Cc4ccc(C)cc4)c(=O)c4ccccc4n23)c1	inactive
CCOc1ccc(N2C(=O)CC(Sc3ncccn3)C2=O)cc1 (stereo not given)	inconclusive [inhibitor, partial curve]
Cc1cccc(C(=O)Nc2ccc3c(c2)C(=O)NC3=O)c1	inactive
C=CCNC(=O)c1ccccc1NC(=O)C1COc2ccccc2O1 (stereo not given)	inconclusive [inhibitor, partial curve]
Cc1ccccc1N1C(=O)C2ON(c3ccccc3)C(c3ccco3)C2C1=O (stereo not given)	active: 50.1 µM
O=C(NC(=S)Nc1cccc2cc(O)ccc12)c1ccccc1Br	active: 35.5 µM
COc1ccc(NC(=O)/C=C/C(=O)O)cc1Cl	inactive
Clc1cccc(CN2CCc3c([nH]c4ccccc34)C2)c1Cl	inconclusive [inhibitor, partial curve, poor fit]
CCOc1ccc(S(=O)(=O)NCCC(=O)NCCc2ccc(C(C)C)cc2)cc1	inactive

Structure (SMILES)	Potency
CCN(CC)CCSc1nc2ccccc2n1Cc1ccccc1	inconclusive [inhibitor, single point]
O=C(Nc1ccc(N2CCN(C(=O)c3ccc(Cl)cc3)CC2)cc1)c1cccs1	inconclusive [inhibitor, partial curve, poor fit]
CC(C)CNC(=O)c1ccc2c(c1)C(=O)N(Cc1ccco1)C2=O	inactive
O=C(NCc1ccco1)c1ccc(COc2ccccc2Cl)cc1	inconclusive [inhibitor, partial curve]
O=C1CC(N2CCN(C(c3ccccc3)c3ccccc3)CC2)C(=O)N1 (stereo not given)	inconclusive [inhibitor, single point]
NC1=NC(=O)CC(C(=O)NCc2ccccc2)S1 (stereo not given)	inconclusive [inhibitor, partial curve]
Cc1cccc(OC(C)C(=O)Nc2ccc(S(=O)(=O)N3CCCC3)cc2)c1 (stereo not given)	inactive
CC(=O)c1ccc(OCC(O)COc2ccc(C(C)=O)cc2)cc1	inactive
O=C(CCCn1c(SCC(=O)Nc2ccccc2C(F)(F)F)nc2ccccc2c1=O)NCC1CCCO1 (stereo not given)	inconclusive [inhibitor, single point]
COc1ccc(-n2nc3c(c2NC(=O)c2c(-c4ccccc4Cl)noc2C)CS(=O)(=O)C3)cc1	inactive
Cc1ccccc1CNC(=O)C(=O)Nc1nccs1	inactive
Cc1ccc(C)n1Cc1ccc(C(=O)O)cc1	inconclusive [inhibitor, partial curve]
Cn1c(=O)c2c(nc(N3CCCCCC3)n2CC(O)COc2ccccc2)n(C)c1=O (stereo not given)	inactive
CCCCOc1ccccc1C1C(C(=O)OC)=CN(CC)C=C1C(=O)OC	inactive
CCOCCOC(=O)c1[nH]c2c(c1C)C(=O)CC(c1cc(OC)c(OC)c(OC)c1)C2 (stereo not given)	inactive
CCOC(=O)N1CCc2c(sc(NCc3cccc(F)c3)c2C(=O)Nc2ccccc2OCC)C1	inconclusive [inhibitor, partial curve]
C#CCOCCOCCOCCNc1nc(N2CCN(C(=O)[C@H](C)n3cc(CCCN=C(N)N)nn3)CC2)nc(N2CCN(C(=O)[C@H](Cc3ccc(O)cc3)n3cc(CCO)nn3)CC2)n1	inconclusive [inhibitor, partial curve]
Nc1ccccc1C(=O)NCc1ccco1	inconclusive [inhibitor, full curve, poor fit]
Cc1ccc(OCC(=O)N/N=C/C=C/c2ccco2)c(Br)c1	active: 28.2 µM
CC(C)(C)C1=C(C#N)C(c2ccc3c(c2)OCO3)C(C#N)=C(N)O1 (stereo not given)	active: 2 µM
Cc1oc2c(cc(NS(=O)(=O)c3ccc(Cl)cc3)c3ccccc32)c1C(=O)O	inconclusive [inhibitor, single point]
CCCCCOc1ccc(NC2=CC(=O)CCC2)cc1	inactive
O=C(c1ccc(F)cc1)N1c2nc(-c3ccco3)nn2C2(CCCCC2)[C@@H]2CCCC[C@@H]21	inconclusive [inhibitor, partial curve]
COc1ccc(C(=O)N2CCCC(O)C2)cc1OC1CCN(C(C)C)CC1 (stereo not given)	inconclusive [inhibitor, full curve, poor fit]
Cn1cccc1C(=O)OCc1cc(-c2ccco2)on1	inconclusive [inhibitor, partial curve]

Structure (SMILES)	Potency
COc1ccc(NC(=O)CC2SC(=O)NC2=O)cc1 (stereo not given)	inconclusive [inhibitor, partial curve]
CCc1ccccc1N/N=C(/C)c1c(O)cc(C)oc1=O	inconclusive [inhibitor, partial curve]
COC(=O)C(=C/C(C)=C/c1cccs1)C(=O)OC	inconclusive [inhibitor, partial curve]
Cc1ccc(S(=O)(=O)N2CCOCC2)s1	inconclusive [inhibitor, full curve, poor fit]
O=S(=O)(Nc1ccc(-c2ccc(N3CCCC3)nn2)cc1)c1ccc(Cl)cc1	inactive
Cc1cccc(N2CCN(C(=O)C3CC(=O)N(c4ccc5c(c4)OCCO5)C3)CC2C)c1 (stereo not given)	active: 44.7 µM
O=C(Nc1ncc2c(n1)CC(c1ccco1)CC2=O)c1ccc(Cl)cc1 (stereo not given)	active: 44.7 µM
CN(CC(=O)Nc1ccccc1Cl)C(=O)CSc1nnc(-c2ccco2)n1C	inconclusive [inhibitor, partial curve]
O=C(Oc1cc(=O)n2ccccc2n1)c1ccccc1	inconclusive [inhibitor, partial curve]
Cn1cnc([N+](=O)[O-])c1Sc1nnc(-c2cccnc2)n1C	active: 0.447 µM
CCCN(CCC)CCCNC(=O)c1cc2c(=O)n(C)c3ccccc3c2n1C	inconclusive [inhibitor, full curve, poor fit]
CC(C)c1ccc(OCc2ccc(C(=O)N3CCCC3)o2)cc1	inconclusive [inhibitor, partial curve]
Cc1ccc(Nc2nc(N)nc(CCl)n2)c(C)c1	active: 31.6 µM
O=C(Nc1cccc(F)c1)C1CCN(c2nnnn2-c2ccccc2)CC1	inconclusive [inhibitor, single point]
Cc1[nH][nH]c(=O)c1C(c1ccc(-c2cccc(C(=O)O)c2)o1)c1c(C)[nH][nH]c1=O	inconclusive [inhibitor, single point]
Cc1ccc(NC(=O)Nc2cnccn2)cc1Cl	inactive
O=C(CCS(=O)(=O)c1nc(-c2ccc3c(c2)OCO3)cc(C(F)(F)F)n1)Nc1ccccc1F	inconclusive [inhibitor, partial curve]
Cc1ccc(NC(=O)Nc2ccc3c(c2)OCO3)c(OC(F)F)c1	inactive
CCCc1nn2c(=O)c(C(c3ccc(C)cc3)c3c(O)nc4sc(CCC)nn4c3=O)c(O)nc2s1	inconclusive [inhibitor, partial curve]
COc1ccc(CC(=O)NCc2nc3cccnc3n2Cc2ccc(C)cc2)cc1OC	inactive
O=C(/C=C/c1cn(-c2ccccc2)nc1-c1ccc2c(c1)OCCO2)NCCO	inactive
COc1ccc(S(=O)(=O)N(Cc2ccccc2)Cc2nc3ccccc3c(=O)[nH]2)cc1	inconclusive [inhibitor, partial curve]
Cc1ccc(S(=O)(=O)NCC(=O)OCC(=O)N2CCN(C(=O)c3ccco3)CC2)cc1C	inconclusive [inhibitor, partial curve]
COCCN(C(=O)c1ccco1)c1nc(-c2ccccc2)cs1	active: 63.1 µM
CCOC(CNC(=O)C1CCN(S(=O)(=O)c2ccc3nc4c(c(C(=O)O)c3c2)CCCCC4)CC1)OCC	inconclusive [inhibitor, partial curve]

From PubChem BioAssay AID485364 (National Center for Advancing Translational Sciences (NCATS), 2010)
